Measured values from PubChem BioAssay AID1346428 (National Center for Advancing Translational Sciences (NCATS), 2018).
Where “and” joins values, the source holds several entries; their conditions need not be identical. Identical values can stand only once. Screen size: about 48,000 compounds; about 1,200 (2.5%) were called active. Another 2% or so got no clear call; they are omitted.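 How the source made its calls: active means activation of at least 60% and not above a set upper limit (about 1 call in 100 departs from these limits); inconclusive means activation of 40% to 60%, or above that upper limit; inactive means activation under 40%.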 Some of the results follow.

These compounds were tested against Probable G-protein coupled receptor 32 (Homo sapiens) (UniProt O75388) (assay: qHTS for Agonists of Human Resolvin D1 Receptor DRV1). Details: CHO-K1 GPR32 beta-arrestin PathHunter luminescence, 90 min; at 76.9 µM; active compounds read high; zero percent set by DMSO-only wells.
In short: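 Readings come from a cell-based beta-arrestin complementation format: CHO-K1 GPR32 stable cells (2,500/well) treated 90 min with compounds, then beta-Gal substrate added for 1 h before chemiluminescence imaging.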
Further: 0% is about no effect.

Sequence of UniProt O75388 (O75388 whole entry, looked up): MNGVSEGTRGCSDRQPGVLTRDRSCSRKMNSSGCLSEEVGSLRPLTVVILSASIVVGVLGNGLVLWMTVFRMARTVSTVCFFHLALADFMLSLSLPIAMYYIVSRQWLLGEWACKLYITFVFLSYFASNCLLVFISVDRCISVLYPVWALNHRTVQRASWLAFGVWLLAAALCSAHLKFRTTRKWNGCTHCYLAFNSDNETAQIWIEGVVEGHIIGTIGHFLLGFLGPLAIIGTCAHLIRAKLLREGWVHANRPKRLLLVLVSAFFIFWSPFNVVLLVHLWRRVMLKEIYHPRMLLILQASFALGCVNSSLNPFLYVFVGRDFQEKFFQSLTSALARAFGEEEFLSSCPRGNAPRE

activation, inactive:
Cc1nn(CC(=O)N2CCN(c3cccc(C(F)(F)F)c3)CC2)c(=O)c2cc3sccc3n12 11.7%, CCCN1CCN(c2cc3c(cc2F)c(=O)c(S(=O)(=O)c2ccc(CC)cc2)cn3CC)CC1 -13.8%, CCn1ccc2c(OCC(=O)NCc3ccccc3)cccc2c1=O 21.8%, NC(=O)c1ccc(NC(=O)C2CCN(S(=O)(=O)Cc3ccccc3)CC2)cc1 -7.74%, CCOc1ccc(NC(=O)CC(C)O)cc1 (centres undefined) 0.538%, COc1ccc2oc(-c3ccc(C)c(NC(=O)c4ccc(-c5ccccc5[N+](=O)[O-])o4)c3)nc2c1 3.67%, Cc1cccc(-c2nc3c(cnn3-c3ccccc3)c(=O)n2-c2ccc(Br)cc2)c1 -29.1%, Cc1ccc(C(=O)O)cc1NC1(c2ccccc2)C(=O)c2ccccc2C1=O -14.9%, CC(C)(C)C1CCc2nc(NC(=O)c3ccc([N+](=O)[O-])cc3)sc2C1 (centres undefined) 11.4%, CC1Cn2c(C(=O)NCc3cccc(Br)c3)cc3cccc(c32)S1 (centres undefined) -26.4%, Cc1c(Cl)cccc1NC(=O)CSc1nc2ncccc2o1 -7.52%, CC(=O)OCC1=C(C(=O)O)N2C(=O)[C@@H](NC(=O)Cc3cccs3)[C@H]2SC1 6.51% and 7.02%, COc1ccccc1CNC(=O)C1CCCN(c2nnc(C)c3c(C)n(-c4ccccc4)nc23)C1 (centres undefined) -2.17%, CCc1ccccc1NC(=O)c1sc2nc(C)cc(COC)c2c1N -33.8%, Cc1ccc2[nH]c(CSc3nnc(NC(=O)c4ccccc4F)s3)cc(=O)c2c1 31.8%, O=C(CCSCc1cccc(Cl)c1)NCc1ccc(F)cc1Cl 23%, COc1ccc(-c2nc3ccc(C4=NNC(=O)CC4C)cc3[nH]2)cc1 (centres undefined) 23.6%, Cc1nn(CCC(=O)NCc2ccc(Cl)cc2)c(=O)c2nn(-c3ccccc3)c(C)c12 0.367%, COc1ccc(CCCc2nnc(SCC(=O)Nc3cccc(C)c3)o2)cc1 41.4%, COc1ccc(-c2onc(C)c2C)cc1S(=O)(=O)NCc1ccc(C)o1 -1.84%, COCC(C)NC(=O)c1cc2c(=O)n3cccc(C)c3nc2s1 (centres undefined) -8.55%, CCOC(=O)c1ccc(-c2ccc(/C=C(\C#N)c3nc4ccc(C)cc4[nH]3)o2)cc1 -23.8%, CCOc1cccc(CC(=O)NCc2ccc3c(c2)CCN3C(C)=O)c1OCC -19.9%, CCC(C)NC(=O)CCc1c(C)nc2c(c(C)nn2-c2ccc(C)cc2)c1C (centres undefined) -18.1%
